Laboratory results from US20240317847A1 (Bayer, published 2024).
Changes are numbered by the printed parent chain.

Tests used:
human IL-11 [1] = target: T1, human IL-11 (human, UniProt P20809 22-199); test: cell-based or functional assay
T1 sequence: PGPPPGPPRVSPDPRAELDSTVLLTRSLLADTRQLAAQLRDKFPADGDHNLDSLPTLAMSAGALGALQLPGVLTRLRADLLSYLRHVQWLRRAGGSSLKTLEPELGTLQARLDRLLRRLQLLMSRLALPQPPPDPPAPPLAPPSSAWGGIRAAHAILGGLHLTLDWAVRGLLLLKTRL

murine IL-11 [2] = target: T2, murine IL-11 (mouse, UniProt P47873 22-199); test: cell-based or functional assay
T2 sequence: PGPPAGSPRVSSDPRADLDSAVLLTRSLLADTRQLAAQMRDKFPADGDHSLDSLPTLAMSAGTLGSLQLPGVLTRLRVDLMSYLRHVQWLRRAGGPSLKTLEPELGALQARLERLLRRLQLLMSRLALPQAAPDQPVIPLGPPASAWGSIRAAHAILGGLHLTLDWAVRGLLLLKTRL

cynomolgus IL-11 [3] = target: T3, cynomolgus IL-11 (cynomolgus, UniProt P20808 22-199); test: cell-based or functional assay
T3 sequence: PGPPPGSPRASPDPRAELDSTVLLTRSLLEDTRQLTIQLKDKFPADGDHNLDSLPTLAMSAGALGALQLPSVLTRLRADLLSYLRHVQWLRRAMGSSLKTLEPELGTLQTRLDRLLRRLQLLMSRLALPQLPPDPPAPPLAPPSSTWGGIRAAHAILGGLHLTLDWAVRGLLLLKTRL

rat IL-11 [4] = target: T4, rat IL-11 (rat, UniProt Q99MF5 22-199); test: cell-based or functional assay
T4 sequence: T2 sequence with S50N, L84F, G94A, V137A, I138V

human IL-11 [5] = target: T1, human IL-11; test: SPR (Biacore), 37 C, antibody captured via anti-Fc, IL-11 as analyte
Protocol: (§1) To assess the binding kinetics and affinity of anti-IL-11 bispecific antibodies as well as their species cross-reactivity profile, binding assays were conducted using surface plasmon resonance (SPR). […] Antibodies were captured either via anti-human Fc IgGs (“Human antibody capture kit”, Order No. BR100839, Cytiva) or via anti-mouse Fc IgGs (“Mouse antibody capture kit, Order No. BR100383, Cytiva) covalently amine coupled to a Series S CM5 sensor chip (Cytiva) depending on the isotype. The amine coupling was carried out according to the manufacturer's instructions using 1-ethyl-3-(3-dimethylaminopropyl) carbodiimide hydrochloride (EDC), N-hydroxysuccinimide (NHS) and ethanolamine HCl, pH 8.5 (“Amine Coupling Kit” BR-1000-50, Cytiva.). Human, mouse, cynomolgus or rat IL-11 was used as analyte at several dilutions within the concentration range from 0.05-200 nM. For binding assays with only one concentration 200 nM IL-11 was used. The sensor surface was regenerated with glycine pH 1.7 after each antigen injection. Obtained sensorgrams were double referenced (subtraction of reference flow cell signal and buffer injection) and were fitted to a 1:1 Langmuir binding model to derive kinetic data using the Biacore T200 Evaluation software or the Biacore Insight software.
(§2) If no value is reported, there was either no binding or very low binding and multiphasic binding behavior.

murine IL-11 [6] = target: T2, murine IL-11; test: as above
Protocol: as §1, §2

cynomolgus IL-11 [7] = target: T3, cynomolgus IL-11; test: as above
Protocol: as §1, §2

rat IL-11 [8] = target: T4, rat IL-11; test: as above
Protocol: as §1, §2

human IL-11 [9] = target: T1, human IL-11; test: Tri-complex ELISA, hIL-11 + mIL-11Ra-Fc + hgp130-Fc, inhibition of complex formation
Protocol: In the Tri-complex ELISA format IL-11 antibodies are tested for their ability to inhibit the formation of a complex consisting of murine or human gp130-Fc fusion protein, with murine or human IL-11, and a murine IL11RA-Fc fusion protein. The assay format was adapted according to FIG. 18 (a, b), depending on whether murine or human IL-11 IgG antibodies were tested.
IgG converted antibodies were subjected to the experimental assay procedure described in Example 19 and IC50 [M], respectively efficacy (%) were calculated accordingly.

B1: TPP-29536 (antibody, human IgG1, lambda)
heavy: EVQLLESGGGLVQPGGSLRLSCAASGFTFSSYGMHWVRQAPGKGLEWVAVISYDGSYKYYADSVKGRFTISRDNSKNTLYLQMNSLRAEDTAVYYCAAGVPDYWGQGTLVTVSSASTKGPSVFPLAPSSKSTSGGTAALGCLVKDYFPEPVTVSWNSGALTSGVHTFPAVLQSSGLYSLSSVVTVPSSSLGTQTYICNVNHKPSNTKVDKKVEPKSCDKTHTCPPCPAPPVAGPSVFLFPPKPKDTLMISRTPEVTCVVVGVSHEDPEVKFNWYVDGVEVHNAKTKPREEQYNSTYRVVSVLTVLHQDWLNGKEYKCKVSNKQLPSPIEKTISKAKGQPREPQVYTLPPSRDELTKNQVSLTCLVKGFYPSDIAVEWESNGQPENNYKTTPPVLDSDGSFFLYSKLTVDKSRWQQGNVFSCSVMHEALHNHYTQKSLSLSPGK
light: QSVLTQPPSASGTPGQRVTISCSGSSSNIGSDYDVHWYQQLPGTAPKLLIYSNEERPSGVPDRFSGSKSGTSASLAISGLRSEDEADYYCSAWDSSLSGPVFGGGTKLTVLGQPKAAPSVTLFPPSSEELQANKATLVCLISDFYPGAVTVAWKADSSPVKAGVETTTPSKQSNNKYAASSYLSLTPEQWKSHRSYSCQVTHEGSTVEKTVAPTECS
notes: hIgG-lambda-HS (human IgG1 with Fc-silencing mutations)
Efficacy (%), Stat3 reporter gene assay (human IL-11 [1]): 85.1%
IC50, Stat3 reporter gene assay (human IL-11 [1]): 1.2 nM
Efficacy (%), Stat3 reporter gene assay (murine IL-11 [2]): 97.2%
IC50, Stat3 reporter gene assay (murine IL-11 [2]): 1.4 nM
Efficacy (%), Stat3 reporter gene assay (cynomolgus IL-11 [3]): 89.7%
IC50, Stat3 reporter gene assay (cynomolgus IL-11 [3]): 1 nM
Efficacy (%), Stat3 reporter gene assay (rat IL-11 [4]): 90.9%
IC50, Stat3 reporter gene assay (rat IL-11 [4]): 1.3 nM
Kd (human IL-11 [5]): 0.18 nM
Kd (murine IL-11 [6]): 0.13 nM
Kd (cynomolgus IL-11 [7]): 0.24 nM
Kd (rat IL-11 [8]): 0.25 nM
Efficacy (%) (human IL-11 [9]): 98.7%
IC50 (human IL-11 [9]): 1 nM
